Laboratory results as given in ChEMBL document CHEMBL1156829.
The full ranking holds about 5,400 compounds; the median of “IFI” is about 2, and the highest 2% start at about 22. Some of the results follow.

Assay: NOVARTIS: Inhibition Frequency Index (IFI) - the number of HTS assays where a compound showed > 50% inhibition/induction, expressed as a percentage of the number of assays in which the compound was tested.
Format: functional
In the case of `COc1ccc(-[n+]2cc(-c3ccc(Cl)cc3)n3c2SCCC3)cc1`, the IFI is reported as 1.85%. `C=CC1CN2CCC1CC2[C@H](O)c1ccnc2ccc(OC)cc12` (some centres undefined) showed an IFI of 2.63%. Compound `Oc1nnc(SCc2nc3ccccc3s2)n1Cc1ccco1` has an IFI of 4.1%. In the case of `CC12CN(Cc3ccccc3)CC(C)(CN(Cc3cccc(Br)c3)C1)C2`, the IFI is reported as 15.4%. Compound `O=C(Nc1ccc2oc(-c3ccccc3F)nc2c1)c1ccc([N+](=O)[O-])o1` has an IFI of 14.3%. In the case of `CCc1ccc(-n2c(C(CC)N(CCC(C)C)C(=O)Nc3ccc(Cl)c(Cl)c3)nc3ccccc3c2=O)cc1` (centres undefined), the IFI is reported as 6.67%. In the case of `COc1ccc(CCNC(=O)Cn2c(C)cc3ccccc3c2=O)cc1OC`, the IFI is reported as 0%. For `Nc1ccc(-c2cc(N)n(-c3ccc(Oc4ccccc4)c(S(=O)(=O)O)c3)n2)cc1`, the IFI was 1.83%. `CCc1ccc(NC(=O)c2sc3nc(N)c(C#N)c(-c4ccc(OC)c(OC)c4)c3c2N)cc1` showed an IFI of 1.06%. Work on `CCN(Cc1ccccc1)c1ncnc2ccc(Br)cc12` yielded an IFI of 1.56%. In the case of `Cc1cc(N)c2ccccc2[n+]1CCCCCCCCCC[n+]1c(C)cc(N)c2ccccc21`, the IFI is reported as 5.79%. In the case of `CC(C(=O)N1CCN(C(c2ccccc2)c2ccccc2)CC1)N(CCN1CCOCC1)S(=O)(=O)c1ccccn1` (centres undefined), the IFI is reported as 0.99%. `FC(F)(F)COc1nc(N2CCCCC2)nc(N(c2ccccc2)c2ccccc2)n1` showed an IFI of 0%. In the case of `Cc1cccc(OC(C)C(=O)N2CCc3ccccc32)c1` (centres undefined), the IFI is reported as 0%. In the case of `COc1ccc(OC)c(/C=C/C(=O)Nc2ccc3nc(N4CCN(C)CC4)cc(C)c3c2)c1`, the IFI is reported as 11.7%. Compound `O=[N+]([O-])c1ccc(-c2cn3nc(C(F)(F)F)sc3n2)cc1` has an IFI of 2.82%. For `COc1ccc(Cl)cc1NC(=O)CSC1=C(C#N)C(c2ccccc2)C(C(=O)Nc2ccccc2)=C(C)N1` (centres undefined), the IFI was 0%. With `Cc1cc(C)cc(NC(=S)NNc2ccnc3cc(Cl)ccc23)c1` the IFI was 2.94%. With `CCC1=NN2C(=N)/C(=C/c3cn(CCOc4cccc(C)c4)c4ccccc34)C(=O)N=C2S1` the IFI was 0%. Compound `Cc1ccc(C)c(CN2C(=O)c3ccccc3S(=O)(=O)c3ccc(C(=O)NCCCN4CCCC(C)C4)cc32)c1` (centres undefined) has an IFI of 0%. `Cc1ccc2ccc(C(Nc3ccccn3)c3ccc(Br)cc3)c(O)c2n1` (centres undefined) gave an IFI of 8.33%. `Cc1cc(C)c(S(=O)(=O)N(C)CCCNc2ccnc3cc(Cl)ccc23)c(C)c1` showed an IFI of 4.72%. For `Cc1ccn2c(NC(C)(C)CC(C)(C)C)c(-c3ccccc3OC(=O)c3ccco3)nc2c1`, the IFI was 3.74%. Compound `CC(=O)Nc1ccc2c(c1)C(=O)N(C(C(=O)NCC(=O)O)C1CCCCC1)[C@@H](CCC(=O)O)C(=O)N2` (some centres undefined) has an IFI of 1.22%. With `CC(C)C1N=C2c3ccccc3N=C(SCC(=O)Nc3cc(C(F)(F)F)ccc3Cl)N2C1=O` (centres undefined) the IFI was 3.53%. In the case of `COc1ccccc1C(=O)ON=C(N)Cc1cccc2ccccc12`, the IFI is reported as 0%. Work on `CN(CC(=O)NC(C)(C)C)S(=O)(=O)c1ccccc1` yielded an IFI of 0%. `Cc1ccc(F)cc1NC(=O)c1cc(Cl)ccc1Nc1ccccc1` gave an IFI of 2.86%. For `CCN1/C(=C/C=C/C2=[N+](C)c3ccc(C)cc3C2(C)C)C=Cc2ccccc21`, the IFI was 28.6%. `O=C(Nc1ccccc1C(F)(F)F)N1CCC(N2CCCCC2)CC1` gave an IFI of 0%. `CC12CN3CC(C)(CN(C1)C3c1ccccc1)C2=O` (centres undefined) gave an IFI of 0%. For `Brc1ccc(/C=C/c2cc[n+](Cc3ccccc3)cc2)cc1`, the IFI was 10.6%. For `O=C(c1ccc([N+](=O)[O-])cc1)C1C(C(=O)c2ccc(F)cc2)C2(C(=O)Nc3ccccc32)C2C=Cc3ccccc3N12` (centres undefined), the IFI was 14.3%. `CC(C)C1c2[nH]c3ccccc3c2CCN1C(=O)CCl` (centres undefined) gave an IFI of 12%. With `CCOc1ccccc1-n1c(C(C)N(Cc2ccccc2)C(=O)Nc2ccccc2OC)nc2ccccc2c1=O` (centres undefined) the IFI was 1.89%. For `Cc1cc(C)c2cc(CN(CCN(C)C)C(=S)NCCCN(C)C)c(=O)[nH]c2c1`, the IFI was 3.12%. In the case of `Oc1ccc(-c2cncc(NCc3ccc(Cl)cc3)c2)cc1`, the IFI is reported as 0%. Compound `CN(C)c1ccc(N2C(N)=NC(N)=NC23CCCC3)cc1` has an IFI of 0%. Compound `CC[C@@H]1CCC[C@H](C)CC[C@@H](O[C@@H]2O[C@@H](C)[C@@H](O)[C@@H](N)[C@H]2O)[C@H](CC)CCCNC1=O` has an IFI of 1.51%. `Cc1ccc(CC(=O)Nc2ccc(I)cc2)cc1` gave an IFI of 0%. Work on `Cc1cnc(Sc2ccccn2)c([N+](=O)[O-])c1` yielded an IFI of 0%. Work on `CCN1CCN(c2cc(C)c3cc(NC(=O)c4cc(OC)cc(OC)c4)ccc3n2)CC1` yielded an IFI of 0%. Work on `COc1ccc2nc(C)cc(N(c3ccc(Br)cc3)S(=O)(=O)c3ccc([N+](=O)[O-])cc3)c2c1` yielded an IFI of 4.25%. In the case of `COc1cc2nc(NCc3ccccc3)n3nc(-c4cccnc4)nc3c2cc1OC`, the IFI is reported as 0%. `CC[n+]1c(/C=C/c2cc(Br)ccc2OC)ccc2ccccc21` gave an IFI of 7.44%. `CCOC(=O)C(=O)N1c2ccc(C)cc2-c2c(ssc2=S)C1(C)C` showed an IFI of 0%. `COc1ccc(Cn2c(SCC(=O)Nc3ccccc3OC)nc3ccsc3c2=O)cc1` showed an IFI of 0%. Work on `N#Cc1nc(C(=O)N2CCOCC2)oc1N1CCOCC1` yielded an IFI of 0%. With `CC(/C=C/C(=O)NO)=C\[C@@H](C)C(=O)c1ccc(N(C)C)cc1` the IFI was 22.6%. Compound `COc1ccc(Nc2nc(NN=Cc3cc4c(cc3Br)OCO4)nc(Nc3ccc([N+](=O)[O-])cc3)n2)cc1` has an IFI of 6.49%. `CC(C)c1ccc(NC(=O)C(Cc2cccs2)c2nnn[nH]2)cc1` (centres undefined) showed an IFI of 4.72%. Work on `CCOC(=O)c1ccc2c(c1)[n+](CC)c(/C=C/N(C)c1ccccc1)n2CC` yielded an IFI of 7.41%. In the case of `Cc1nc(-c2ccc[n+](C)c2)sc1C(=O)/C=C/c1ccc(Cl)cc1`, the IFI is reported as 5.71%. For `CCOC(=O)c1ccc(N(C(=O)CSCC(=O)Nc2cc(C)on2)C(C(=O)NC2CCCCC2)c2ccc(O)c(O)c2)cc1` (centres undefined), the IFI was 2.73%. For `Cc1ccc(Nc2cc(C)nc(NCc3ccccc3)n2)cc1`, the IFI was 5.81%. `O=C1c2ccccc2-[n+]2ccc3c([nH]c4ccccc43)c21` gave an IFI of 41.2%. In the case of `CCN1CCN(Cc2ccc(-c3cc4c(N[C@H](C)c5ccccc5)ncnc4[nH]3)cc2)CC1`, the IFI is reported as 6.67%. Work on `CCC(=O)Oc1ccccc1-c1nc2ccccn2c1NC(C)(C)CC(C)(C)C` yielded an IFI of 2.83%. `CCOC(=O)C1=C(C)NC2=C(C(=O)C(C(=O)OCC)C(c3ccc(OC)cc3)C2)C1c1ccc([N+](=O)[O-])cc1` (centres undefined) showed an IFI of 3.57%. Compound `CC(C)N1CCC(N2CCN(Cc3ccc4c(c3)Cc3ccccc3-4)CC2CCO)CC1` (centres undefined) has an IFI of 8.33%. In the case of `COc1cc2nc(NCc3ccccn3)n3nc(-c4ccccc4)nc3c2cc1OC`, the IFI is reported as 0%. `Cc1ccc(CNC(=O)C2CNCC2c2ccc(C(F)(F)F)cc2)cc1` (centres undefined) gave an IFI of 2.82%. Compound `Cc1ccn2c(NC(C)(C)CC(C)(C)C)c(-c3ccccc3OC(=O)CCCCl)nc2c1` has an IFI of 4.67%. For `CC(NC(=S)N(Cc1ccco1)Cc1cc2cc3c(cc2[nH]c1=O)OCO3)c1ccccc1` (centres undefined), the IFI was 5.79%. In the case of `COc1ccc(C2CC(=O)C3=C(C2)NC(C)=C(C(=O)OC(C)C)C3c2ccccc2F)cc1OC` (centres undefined), the IFI is reported as 4.76%. In the case of `CN(C)c1ccc(C(=C2C=CC(=[N+](C)C)C=C2)c2ccc(N(C)C)cc2)cc1`, the IFI is reported as 25.7%. `Clc1ccc(Nc2nc3nonc3nc2Nc2ccc(Cl)c(Cl)c2)cc1Cl` showed an IFI of 7.14%. `COc1ccc(C2C(C(=O)NCCN(C)C)c3ccccc3C(=O)N2C2CCCCC2)cc1` (centres undefined) gave an IFI of 0%. Work on `CCOC(=O)c1c(NC(=O)CSc2nnc(CNC(=O)c3cccc(C)c3)n2Cc2ccccc2)sc2c1CCCC2` yielded an IFI of 0%. Compound `COc1ccc([N+](=O)[O-])cc1C=NNc1nc(Nc2ccc([N+](=O)[O-])cc2)nc(N2CCN(C)CC2)n1` has an IFI of 3.95%. In the case of `CC[n+]1c(C=C2C=CN(C)C=C2)ccc2cc(C)ccc21`, the IFI is reported as 7.81%. `CCC(C)C(=O)N1CCC(C(=O)Nc2ccc(-c3nc4ccccc4o3)cc2)CC1` (centres undefined) gave an IFI of 0%. In the case of `CN(CCCNc1ccnc2cc(Cl)ccc12)C(=O)c1cc(C(F)(F)F)cc(C(F)(F)F)c1`, the IFI is reported as 2.08%. Work on `CCCCCCN(C(=O)c1ccc2ccccc2c1)C(CC)c1nc2ccccc2c(=O)n1-c1cccc(Cl)c1` (centres undefined) yielded an IFI of 3.67%. For `COc1ccccc1CN1CCc2nc(N3CCCCC3)sc2C1`, the IFI was 9.72%. For `Oc1ccccc1-c1nc2sc(-c3ccccc3O)nc2s1`, the IFI was 11%. `CC(C)(C)C1=NN(CC(=O)NCCc2c[nH]cn2)C(=O)c2cc3ccccc3n2C1` showed an IFI of 0%. `O=C(NCCCCNc1ccnc2cc(Cl)ccc12)c1cccc(C(F)(F)F)c1` gave an IFI of 0.935%. `COc1cnc(-c2ccccn2)nc1NC(C)C` gave an IFI of 2.5%. Work on `CC1CNC2C(C)C3C(CC4C5CCC6CC(N)CCC6(C)C5CCC43C)OC2(O)C1` (centres undefined) yielded an IFI of 5.26%. With `COc1cccc2c1[C@@H](OC)[C@@]13O[C@]1(C2=O)[C@H](O)[C@@H](C)[C@](O)(C(=O)[C@@H]1O[C@H]1C)[C@H]3O` the IFI was 20.4%. Compound `COc1ccc(/C=C2\SC(=O)NC2=Nc2ccccc2)cc1` has an IFI of 0%. In the case of `COc1ccccc1/C=C/C1=NC(=C\c2ccc(SC)cc2)/C(=O)O1`, the IFI is reported as 0%. Work on `Oc1ccc(Cl)cc1C1CC(c2ccc(Cl)cc2)=NC(c2ccc(Cl)cc2)N1` (centres undefined) yielded an IFI of 0%. For `N#Cc1c2c(c(N3CCN(Cc4ccccc4)CC3)n3c1nc1ccccc13)CCC2`, the IFI was 1.15%. `COc1ccc(C2CC(=O)C3=C(C2)NC(C)=C(C(=O)OC(C)C)C3c2ccc(F)cc2)cc1` (centres undefined) gave an IFI of 3.49%. Work on `CCOc1ccc(NC2=C(N3CCOCC3)C(=O)c3ccccc3C2=O)cc1` yielded an IFI of 0%. In the case of `C=CCn1c(SCC(=O)Nc2ccccc2C)nc2sc(C)cc2c1=O`, the IFI is reported as 0%. `COc1ccc(OC)c(C(C(=O)NC2CCCC2)N(C(=O)c2snc(C(N)=O)c2N)c2ccccc2OC)c1` (centres undefined) gave an IFI of 6.31%. `COc1ccc(-c2nc(-c3ccncc3)cnc2N)cc1OC` gave an IFI of 0%. With `O=C(Cc1ccccc1)N1CCOc2c(cc(-c3csc4ccccc34)cc2OCCc2ccccn2)C1` the IFI was 4.04%. `FC(F)(F)c1cccc(NC(=S)N2CCSC2c2ccc(Br)cc2)c1` (centres undefined) showed an IFI of 4.54%. For `Cc1ccc(CN=C(N)Nc2nc(C)cc(C)n2)cc1`, the IFI was 7.53%. With `O=C(NCCCCCCCCCCNC(=O)Nc1ccc(C2=NCCCN2)cc1)Nc1ccc(C2=NCCCN2)cc1` the IFI was 1.83%.
